Measured values reported in article PMC9911399, “Two distinct binding modes provide the RNA-binding protein RbFox with extraordinary sequence specificity”.
Substitutions are numbered along the chain they refer to; changes in the protein carry UniProt numbers. This is one part of the list.

T1: RBFOX1 RRM (Homo sapiens, UniProt Q9NWB1 109-208)
T1 sequence: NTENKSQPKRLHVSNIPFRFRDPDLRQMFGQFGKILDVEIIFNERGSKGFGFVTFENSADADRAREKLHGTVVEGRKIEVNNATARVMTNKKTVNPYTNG

B1: AGAUAGC (DNA:RNA)
RNA: GGGAGACCGGAAUUCAGAUUGUCCAGAUAGCUUAAAUCCCGUCGUAGCCACCA
DNA 1: CAATCTGAATTCCGGTCTCCC
DNA 2: TGGTGGCTACGACGGGATT
B2: UCGACAU (DNA:RNA)
RNA: GGGAGACCGGAAUUCAGAUUGUCCUCGACAUUUAAAUCCCGUCGUAGCCACCA
DNA 1: CAATCTGAATTCCGGTCTCCC
DNA 2: TGGTGGCTACGACGGGATT
B3: AGGUCUC (DNA:RNA)
RNA: B1 RNA with A27G, A29C, G30U
DNA 1: CAATCTGAATTCCGGTCTCCC
DNA 2: TGGTGGCTACGACGGGATT
B4: AAUACAC (DNA:RNA)
RNA: B2 RNA with U25A, C26A, G27U, U31C
DNA 1: CAATCTGAATTCCGGTCTCCC
DNA 2: TGGTGGCTACGACGGGATT
B5: AGGCGUA (DNA:RNA)
RNA: B1 RNA with A27G, U28C, A29G, G30U, C31A
DNA 1: CAATCTGAATTCCGGTCTCCC
DNA 2: TGGTGGCTACGACGGGATT
B6: UGAUAGU (DNA:RNA)
RNA: B1 RNA with A25U, C31U
DNA 1: CAATCTGAATTCCGGTCTCCC
DNA 2: TGGTGGCTACGACGGGATT
B7: CCUCAGA (DNA:RNA)
RNA: B1 RNA with A25C, G26C, A27U, U28C, C31A
DNA 1: CAATCTGAATTCCGGTCTCCC
DNA 2: TGGTGGCTACGACGGGATT
B8: CUCUGCU (DNA:RNA)
RNA: B1 RNA with A25C, G26U, A27C, A29G, G30C, C31U
DNA 1: CAATCTGAATTCCGGTCTCCC
DNA 2: TGGTGGCTACGACGGGATT
B9: CUUGUUA (DNA:RNA)
RNA: GGGAGACCGGAAUUCAGAUUGUCCCUUGUUAUUAAAUCCCGUCGUAGCCACCA
DNA 1: CAATCTGAATTCCGGTCTCCC
DNA 2: TGGTGGCTACGACGGGATT

The binders below were run against T1, RBFOX1 RRM (assay: EMSA; HiTS-Eq, 1 nM pool, 10 min; buffer printed only for the single-RNA assays: 10 mM Tris pH 7.5, 150 mM NaCl, 3.4 mM EDTA, 0.001% NP-40, 30 C). Settings: tags: His6 N-terminal (pET28a); label: 5' 32P.
How it was run: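 Relative association constants, normalised to the cognate motif, were derived by comparing read counts of each RNA species with those of the control reaction. The RNA sequenced was the free fraction, separated by 8% native PAGE after a 10 min equilibration in 50 µL of 1 nM 5′-radiolabelled RNA (7 randomized nucleotides) with increasing concentrations of purified wild-type or mutant RbFox RRM.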
In the case of B1, the binding signal is reported as 0.0117 KA relative to UGCAUGU. In the case of B2, the binding signal is reported as 0.00497 KA relative to UGCAUGU. For B3, the binding signal was 0.0131 KA relative to UGCAUGU. B4 was tested, and the binding signal was 0.00022 KA relative to UGCAUGU. B5 was tested, and the binding signal was 0.00915 KA relative to UGCAUGU. In the case of B6, the binding signal is reported as 0.0208 KA relative to UGCAUGU. B7 was tested, and the binding signal was 0.00876 KA relative to UGCAUGU. In the case of B8, the binding signal is reported as 0.0179 KA relative to UGCAUGU. In the case of B9, the binding signal is reported as 0.00857 KA relative to UGCAUGU.
